# Source: the RNAGym collection of RNA variant scans (doi:10.1101/gad.245936.114)
# Variants at the floor of the assay are shown more often than the library holds them.
# B1: tRNA (parent)
# chain: CUCUCGGUAGCCAAGUUGGUUUAAGGCGCAAGACUUUAAUUUAUCACUACGAAAUCUUGAGAUCGGGCGUUCGACUCGCCCCCGGGAGAUUUUUUCCUCGAGCAA
# Variants of: B1
# Test: nonsense suppression (GFP-seq) (ratio to wild type); higher = more function; SUP4oc tRNA, yeast GFP reporter sort-seq
# Outline: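 Raffinose/galactose medium with 80 mg/L adenine was used to grow yeast carrying genome-integrated tRNA variants (~3% random-mutation library), RFP, and a galactose-driven GFP ochre reporter. Cells went into GFP/RFP bins, which were Illumina-sequenced, and variants with ≥100 reads and ≥30 cells were scored. Nonsense suppression (GFPSEQ) is the per-bin median GFP/RFP weighted by estimated cell share and expressed relative to the unmutated parent tRNA.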
row,Variant,nonsense suppression
1,CUCUUGGUAGCCACGUUGGUUUAAGGCGCAAGACUUUAAUUUAUCACUACGAAAUCUUGAGAUCGGGCGUUCGACUCGCCCCGGGGAGAUUUUUUCCUCGAGCAA,≤ 0.026
2,CUCUUGGUAGCCAGGUAGGUUUAAGGCGCAAGACUUUAAUUUAUCACUACGAAAUCUUGAGAUCGGGCGUUCGACUCGCCCCCGGGAGAUUUUUUCCUCGAGCAA,≤ 0.026
3,CUCUUGGUAGCCAAGUUGGUUUCAGGCGCAAGACUUUAAUUUAUCACUACGAAAUCUUGAGAUCGGGCGUUCAACUCGCCCCCGGGAGAUUUUUUCCUCGAGCAA,≤ 0.026
4,CUCUUGGUAGCCAAGUUGGUUUUGGGCGCAAGACUUUAAUUUAUCACUACGAACUCUUGAGAUCGGGCGUUCGAGUCGCCCCCGGGAGAUUUUUUCCUCGAGCAA,≤ 0.026
5,CUCUUGGUAGCCAAGUUGGUUUACGGUGCAAGACUUUAAUUUAUCACUACGAAAUCUUGAGAUCGGGCGUUCGACUCGCCCACGGGAGAUUUUUUCCUCGAGCAA,≤ 0.026
6,CUCUUGGUAGCCAAGUUGGUUUAGGGCGCAAGACUUUAAUUUAUCACUACGAAAUCUUGAGAUCGGGCGUUCGACUCGCCCCCGGGAGAUUUUUUCCUCGAGCAA,≤ 0.026
7,CUCUUGGUAGCCAAGUUGGUUUAGGGCGCAAGAAUUUAAUUUAUCACUACGAAAUCUUGAGAUCGGGCGUUCGACUCGCCCCCGGGAGAUUUUUUCCUCGAGCAA,≤ 0.026
8,CUCUUGGUAGCCAAGUUGGUUUAUGGAGCAAGACUUUAAUUUAUCACUACGAAAUCCUGAGAUCGGGCGUUCGACUCGCCCCCGGGAGAUUUUUUCCUCGAGCAA,≤ 0.026
9,CUCUUGGUAGCCAAGUUGGUUUAUGGAGCAAGACUUUAAUUUAUCACUACGAAAUCCUGAGAUCGGGCGUUCGACUCGCCCCCGGCAGAUUUUUUCCUCGAGCAA,≤ 0.026
10,CUCUUGGUAGCCAAGUUGGUUUAAGGCGCCUGACUUUAAUUUAUCACUACGAAAUCUUGAGAUCGGGCGUUCGACUCGCCCCCGGGAGAUUUUUUCCUCGAGCAA,≤ 0.026
11,CUCUUGGUAGCCAAGUUGGUUUAAGGCGCCAGACUUUAAUUUAUCACUACGAAAUCUUGAGAUCGGGCGUUCGACUCGCCCUCGGGAGAUUUUUUCCUCGAGCAA,≤ 0.026
12,CUCUUGGUAGCCAAGUUGGUUUAAGGCGCGUGACUUUAAUUUAUCACUACGAAAUCUUUAGAUCGGGCGUUCGACUCGCCCCCAGGAGAUUUUUUCCUCGAGCAA,≤ 0.026
13,CUCUUGGUAGCCAAGUUGGUUUAAGGCGCUAGACUUUAAUUUAUCACUACGAAAUCUUGAGAUCGGGCGUUCGACUCGCCCCCGGGAGAUUUUUUCCUCGAGCAA,0.138
14,CUCUUGGUAGCCAAGUUGGUUUAAGGCGCACGACUUUAAUUUAUCACUACGAAAUCUUGAGAUCGGGCGUUCGACUCGCCCCCGGGAGAUUUUUUCCUCGAGCAA,≤ 0.026
15,CUCUUGGUAGCCAAGUUGGUUUAAGGCGCACGACUUUAAUUUAUCACUACGAAAUCUUGAGAUCGGGCCUUCGACUCGCCCCCGGGAGAUUUUUUCCUCGAGCAA,≤ 0.026
16,CUCUUGGUAGCCAAGUUGGUUUAAGGCGCAGGACUUUAAUUUAUCACUACGAAAUCUUGAGAUCGGGCGUUCAACUCGCCCCCGGGAGAUUUUUUCCUCGAGCAA,≤ 0.026
17,CUCUUGGUAGCCAAGUUGGUUUAAGGCGCAAGCCUUUAAUUUAUCACUACGAAAUCUUGAGAUCGGGCGUUCGACUCGCACCCGGGUGAUUUUUUCCUCGAGCAA,≤ 0.026
18,CUCUUGGUAGCCAAGUUGGUUUAAGGCGCAAGGCUUUAAUUUAUCACUACGAAGUCUUGAGAUCGGGCGUUCGACUCGCCCCCGGGCGAUUUUUUCCUCGAGCAA,≤ 0.026
19,CUCUUGGUAGCCAAGUUGGUUUAAGGCGCAAGGCUUUAAUUUAUCACUACGAAAUCUUGAGAUCGGGCGUUCGACUCGCCCCCGGGAGGUUUUUUCCUCGAGCAA,≤ 0.026
20,CUCUUGGUAGCCAAGUUGGUUUAAGGCGCAAGGGUUUAAUUUAUCACUACGAAAUCUUGAGAUCGGGCGUCCGACUCGCCCCCGGGAGAUUUUUUCCUCGAGCAA,≤ 0.026
21,CUCUUGGUAGCCAAGUUGGUUUAAGGCGCAAGGCUUUAAUUUAUCACUACGAAAUUUUGAGAUCGGGCGUUCGACUCGCCCCCGGGAGAUUUUUUCCUCGAGCAA,≤ 0.026
22,CUCUUGGUAGCCAAGUUGGUUUAAGGCGCAAGGCUUUAAUUUAUCACUACGAAAUCUUGAGAUCGGGUGUUCCACACCCCCCCGGGAGAUUUUUUCCUCGAGCAA,≤ 0.026
23,CUCUUGGUAGCCAAGUUGGUUUAAGGCGCAAGUCUUUAAUUUAUCACUACGAAAUCUUGAGAUCGGGCGUUCGACUCGCCCCCGGGAGAUUUUUUCCUCGAGCAA,≤ 0.026
24,CUCUUGGUAGCCAAGUUGGUUUAAGGCGCAAGACUUUAAUUUAUCACUACGAACUCUUGAGAUUGGGCGUUCGACUCGCCCCCGGGAGAUUUUUUCCUCGAGCAA,≤ 0.026
25,CUCUUGGUAGCCAAGUUGGUUUAAGGCGCAAGACUUUAAUUUAUCACUACGAAGUCUUGUGAUCGGGCGUUCGGCUCGCCCCCGGGAGAUUUUUUCCUCGAGCAA,≤ 0.026
26,CUCUUGGUAGCCAAGUUGGUUUAAGGCGCAAGACUUUAAUUUAUCACUACGAAGUCUUGAGAUCGGGCGUUCGACUCGCCCCCCGAAGAUUUUUUCCUCGAGCAA,≤ 0.026
27,CUCUUGGUAGCCAAGUUGGUUUAAGGCGCAAGACUUUAAUUUAUCACUACGAAGCCUUGAGAUCGGGCGUUCGACUCGCCCCCGGGAGAUUUUUUCCUCGAGCAA,≤ 0.026
